{"source": "the supplement of paper PMC11417369", "note": "The list shows a part of the results.", "data": [{"test_system": "PF3D7_0420300 AP2 domain 1 (GST-tagged)", "experiment": "gcPBM binding intensity (ln(normalized median fluorescence intensity)); higher = stronger DNA binding", "in_short": "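The highest Masliner-normalised natural-log median intensity across replicate spots of either probe orientation is reported as binding intensity. GST-tagged P. falciparum DNA-binding domains expressed in E. coli were applied for 1 h to an Agilent 4 × 180k array of primer-extended double-stranded 36-bp intergenic genomic probes plus negative controls, and bound protein was detected with Alexa488 anti-GST antibody and scanned at 488 nm.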", "values": [{"sequence": "TATATTTTTATAATAACACACGATATATGTTTAGGA [CACACA_site1283]", "gcPBM binding intensity (ln)": 9.27}, {"sequence": "TATAAATCTATAAATGCACACAAGGGAAGAAAAACG [CACACA_site2965]", "gcPBM binding intensity (ln)": 9.84}, {"sequence": "CAAACAATTAAACAAACACACATATACAAGTATATA [CACACA_site8639]", "gcPBM binding intensity (ln)": 9.71}, {"sequence": "TATTATTCCAAGAAAAAAAAAAATAAAAAAAAAAAA [CACACA_negctrl_site1424]", "gcPBM binding intensity (ln)": 8.87}, {"sequence": "AAAGAACAAATAAAACATAAAATAATATATATAGAT [CACACA_negctrl_site1764]", "gcPBM binding intensity (ln)": 9.76}, {"sequence": "ATTAAAATTTGTTAAAGTACTTAATAAAAATTTTTC [XGTACX_site1959]", "gcPBM binding intensity (ln)": 8.86}, {"sequence": "GTATATAATTATATATGTACTAAATAAATATTTTTA [XGTACX_site6062]", "gcPBM binding intensity (ln)": 9}, {"sequence": "TTTTCTAAAAAAAGTTGTACATCTTATTTATATTAT [XGTACX_site295]", "gcPBM binding intensity (ln)": 9.22}, {"sequence": "AAAAAATAAAAAAATAAAAAATAAAAAATAAAAAAT [TGCATGCA_negctrl_site90]", "gcPBM binding intensity (ln)": 9.32}, {"sequence": "TATAAAAATAAATAAATAAATAAATAAATAAATAAA [TGCATGCA_negctrl_site310]", "gcPBM binding intensity (ln)": 9.03}, {"sequence": "ATGTAAGACAAAAAGGGTACATAATGCGTATGTATT [XGTACX_site4666]", "gcPBM binding intensity (ln)": 9.58}, {"sequence": "AAAAATTACCCATCCATACACACATATTTTTTTTAA [CACACA_site2190]", "gcPBM binding intensity (ln)": 9.58}, {"sequence": "TTTTTAGTTAATTAAACACACAAAAAAAAAAATAAA [CACACA_site3930]", "gcPBM binding intensity (ln)": 9.24}, {"sequence": "AATATTTTTATATATATACACACTTACATATATATA [CACACA_site3609]", "gcPBM binding intensity (ln)": 9.5}, {"sequence": "ATAATATTGTGGTATACACACCTTACAAAAAGGTAC [CACACA_site5582]", "gcPBM binding intensity (ln)": 9.46}, {"sequence": "CACACGTATATATATACACACTAAAATACCCAGACA [CACACA_site6142]", "gcPBM binding intensity (ln)": 9.71}, {"sequence": "TATATTTGGTTTCATTCATTTTTATAGAAATCTCAA [CACACA_negctrl_site1412]", "gcPBM binding intensity (ln)": 9.07}, {"sequence": "TATTTTTTTACATATTGTACATAATATAAAACTTAC [XGTACX_site8273]", "gcPBM binding intensity (ln)": 9.12}, {"sequence": "ATTTTTTCATATTCTACACACGTGAACAAATGTGTC [CACACA_site3007]", "gcPBM binding intensity (ln)": 9.46}, {"sequence": "ATATAATAGAAGTGTACACACATATTTATGGGTGTA [CACACA_site5686]", "gcPBM binding intensity (ln)": 9.59}, {"sequence": "AATATTTTGTTATTTATTTAATCTAATATTATGATA [GTGCAC_negctrl_site258]", "gcPBM binding intensity (ln)": 9.17}, {"sequence": "TCAAGAATTATATAAACACACATACATACACCCATA [CACACA_site5126]", "gcPBM binding intensity (ln)": 9.81}, {"sequence": "GAATTCAACAAAAAAAGTACTCTACATAAAATAATG [XGTACX_site175]", "gcPBM binding intensity (ln)": 9.12}, {"sequence": "CCATGCATACATTCTTGTACACATTTCTATTATGAG [XGTACX_site39]", "gcPBM binding intensity (ln)": 9.27}, {"sequence": "ATATTGATGTATTGTTTTTTTTTTTTCTTTTTTTTT [CACACA_negctrl_site1238]", "gcPBM binding intensity (ln)": 9.57}, {"sequence": "TACTCACAATGGGGTCTACAAAAAAAAAAAAATAAA [XGTACX_negctrl_site229]", "gcPBM binding intensity (ln)": 8.65}, {"sequence": "TTATAAAAGGACTTCTGTACGAATTTTTTTTAATAA [XGTACX_site1411]", "gcPBM binding intensity (ln)": 8.78}, {"sequence": "GAACGAAACTTTCTTACACACATTGAAATTTTTTTC [CACACA_site1779]", "gcPBM binding intensity (ln)": 9.62}, {"sequence": "ATTAATTTTATATATGCACACAAAATATGTTCATAT [CACACA_site9350]", "gcPBM binding intensity (ln)": 9.43}, {"sequence": "ATGATCATAAAACACACACACAAAAAAAAAAAAAAA [CACACA_site1805]", "gcPBM binding intensity (ln)": 9.51}, {"sequence": "AATAATATTTATTTTTGTACATATGTGCATTATAAA [XGTACX_site3682]", "gcPBM binding intensity (ln)": 9.1}, {"sequence": "TTATAATAAACCTATACACACATAAATAAATAAATA [CACACA_site2581]", "gcPBM binding intensity (ln)": 9.71}, {"sequence": "TATGTATATATTTGTGCACACCAAAGTTTGATTTTA [CACACA_site1861]", "gcPBM binding intensity (ln)": 9.53}, {"sequence": "ATATAGACACACACATGTACATATGCCAACGTGATA [XGTACX_site3828]", "gcPBM binding intensity (ln)": 9.61}, {"sequence": "ATAAACTGAGTGGTTACACACAAAACCAATAACTTT [CACACA_site7601]", "gcPBM binding intensity (ln)": 9.76}, {"sequence": "ACTATATAATATAATATATTATAATATATTATATTA [GTGCAC_negctrl_site140]", "gcPBM binding intensity (ln)": 9.09}, {"sequence": "TTCTTAAAATATGAAAGTACATAGGCATTATATATT [XGTACX_site8400]", "gcPBM binding intensity (ln)": 9.03}, {"sequence": "TATGCAAGGAACCACACACACACACCGAAATGTATA [CACACA_site4573]", "gcPBM binding intensity (ln)": 10.1}, {"sequence": "TTTTTTATTAGTATCTGTACACATTGGTATTTGTAT [XGTACX_site6682]", "gcPBM binding intensity (ln)": 9.5}, {"sequence": "AATAAATAAATATATATATATATATAATATCATAAA [CACACA_negctrl_site337]", "gcPBM binding intensity (ln)": 9.08}, {"sequence": "ATATATATTTATGTATCACACACAAAAAAAAAAAAT [CACACA_site7973]", "gcPBM binding intensity (ln)": 9.66}, {"sequence": "AGTTTATTTATATACACACACATATAAATATTATAG [CACACA_site6522]", "gcPBM binding intensity (ln)": 9.72}, {"sequence": "TTCTTTAAAATATTATGTACACATTGCGAACAGTTT [XGTACX_site5418]", "gcPBM binding intensity (ln)": 9.17}, {"sequence": "TATATATATATATATTGTACTTATGTTTATATTCAT [XGTACX_site6258]", "gcPBM binding intensity (ln)": 9.37}, {"sequence": "TATTTATGTAGATACACACCCATGTTATATGGAGGT [CACACA_site3461]", "gcPBM binding intensity (ln)": 9.32}, {"sequence": "TTTCTTTTTTTTTTTATTTACCTGAATTATGTATTA [TGCATGCA_negctrl_site345]", "gcPBM binding intensity (ln)": 9.24}, {"sequence": "GCTTGTTCAAAAATGAGTACATACAAATAGTTGTAT [XGTACX_site1770]", "gcPBM binding intensity (ln)": 9.07}, {"sequence": "CCTTCATCATATTTAACACACAGAGAAAAAGCGGAT [CACACA_site274]", "gcPBM binding intensity (ln)": 9.72}, {"sequence": "AAAAAAAAAAAAAAAAAAACCACAAACAAATATGAA [TGCATGCA_negctrl_site34]", "gcPBM binding intensity (ln)": 9.49}, {"sequence": "TCCTTTCTTTTTTAAACATGCATATGTAATATAAAT [TGCATGCA_site979]", "gcPBM binding intensity (ln)": 8.96}, {"sequence": "TTTACATACAAATTAACACACATATAGAAAAGAGAA [CACACA_site1889]", "gcPBM binding intensity (ln)": 9.59}, {"sequence": "CTCGTATATATAATACGTACATATTATATATATATA [XGTACX_site1704]", "gcPBM binding intensity (ln)": 9.19}, {"sequence": "AAAAAAAATAAACACACACACATACCCATAAATATA [CACACA_site5980]", "gcPBM binding intensity (ln)": 10.1}, {"sequence": "TTTTAAAATATATTTGTATATATATATATATATATA [XGTACX_negctrl_site536]", "gcPBM binding intensity (ln)": 8.94}, {"sequence": "ATAATATAATAATACACACTCATTATATATATAAAG [CACACA_site3956]", "gcPBM binding intensity (ln)": 9.52}]}]}
